Where “and” joins values, the source holds several entries; their conditions need not be identical. Equal values may be shown once. About 2,200 (0.55%) of roughly 400,000 compounds were called active. The inconclusive results got no clear call from the source; some entries with a clear call stand among them for comparison. The call rests on the fitted dose curve; in most records, active means well fitted inhibition curve with a large enough effect; inconclusive means small, poorly fitted or top-dose-only effect, or another doubt; inactive means no such curve, though single readings can be large or run the other way. Potencies of inconclusive entries are doubtful fits and often do not repeat.
Target: DNA polymerase kappa (Homo sapiens) (UniProt Q9UBT6)
Sequence of UniProt Q9UBT6 (Q9UBT6 whole entry, looked up): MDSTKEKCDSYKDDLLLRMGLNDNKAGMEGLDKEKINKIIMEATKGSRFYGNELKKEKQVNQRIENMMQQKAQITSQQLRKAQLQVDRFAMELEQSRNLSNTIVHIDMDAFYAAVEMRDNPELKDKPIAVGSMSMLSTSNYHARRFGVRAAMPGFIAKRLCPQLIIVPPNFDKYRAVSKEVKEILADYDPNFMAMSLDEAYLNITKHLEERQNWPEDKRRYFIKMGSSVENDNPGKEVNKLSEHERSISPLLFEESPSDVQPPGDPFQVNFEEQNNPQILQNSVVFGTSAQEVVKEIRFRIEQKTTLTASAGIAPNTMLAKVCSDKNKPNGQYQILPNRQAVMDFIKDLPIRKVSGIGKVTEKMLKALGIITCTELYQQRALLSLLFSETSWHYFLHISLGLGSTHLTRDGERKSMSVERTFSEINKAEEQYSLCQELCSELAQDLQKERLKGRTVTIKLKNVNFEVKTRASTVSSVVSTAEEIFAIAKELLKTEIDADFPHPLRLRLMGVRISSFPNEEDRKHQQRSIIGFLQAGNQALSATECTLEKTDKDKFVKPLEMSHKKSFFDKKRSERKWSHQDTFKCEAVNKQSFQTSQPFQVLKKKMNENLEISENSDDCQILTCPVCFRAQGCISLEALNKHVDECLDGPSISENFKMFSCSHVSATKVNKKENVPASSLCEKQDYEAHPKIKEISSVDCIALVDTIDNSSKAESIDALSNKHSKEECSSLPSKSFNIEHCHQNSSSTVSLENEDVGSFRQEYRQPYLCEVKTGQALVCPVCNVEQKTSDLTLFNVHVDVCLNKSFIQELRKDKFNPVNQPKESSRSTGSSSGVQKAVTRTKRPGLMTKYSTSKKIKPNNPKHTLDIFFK
Test: qHTS for Inhibitors of Polymerase Kappa
Settings: purified Pol kappa, fluorescent DNA synthesis assay, 10 min; series mostly up to 107 µM
Protocol: The processing and repair of DNA interstrand crosslinks (ICL) in eukaryotic cells are extremely complex, potentially involving multiple DNA repair and damage tolerance pathways, including homologous recombination, nucleotide excision repair, translesion synthesis (TLS), and cell cycle checkpoints.
To that end, in a collaboration between the Oregon Health & Science University and the NIH Chemical Genomics Center a 1536-well high-throughput screen was developed. This fluorescent screen was assayed against the NIH Molecular Libraries Small Molecule Repository (MLSMR) to discover inhibitors of Pol Kappa.
NIH Chemical Genomics Center [NCGC]
NIH Molecular Libraries Probe Centers Network [MLPCN]
Assay Submitter (PI): Stephen Lloyd, Oregon Health & Science University
Three microliters of reagents (buffer in column 3 and 4 as negative control and 10 nM Pol kappa in columns 1, 2, and 5-48) were dispensed into a 1536-well black solid-bottom plate. Compounds (23 nL) were transferred via Kalypsys pin tool equipped with 1536-pin array. The plates were then incubated for 15 min at room temperature, and 1 uL substrate (50 nM final concentration) were then added to start the reaction and kinetically read twice at 0 min and 10 min on the Viewlux reader
On the % scale 0 is the no-effect control and ±100 the full control effect; potency means the concentration at half of the fitted maximal effect; tags describe the fitted curve by direction and shape.

SMILES | Potency | activity, negative = inhibition
Cc1ccc(-n2nc(C)c3c2NC(=O)CSC3c2ccc3c(c2)OCO3)cc1 (configuration not stated) | inconclusive: 89.1 µM [inhibitor, partial curve, poor fit] | –
O=c1cc(-c2ccc(O)cc2)oc2c([C@@H]3O[C@H](CO)[C@@H](O)[C@H](O)[C@H]3O)c(O)cc(O)c12 | inconclusive: 23.8 µM [inhibitor, single point] | –
N/C(=N\N=C/c1ccc(-c2ccc(O)c(C(=O)O)c2)o1)N[N+](=O)[O-] | active: 8.91 µM | –
NC1C=CC=C(C(=O)O)C1 (configuration not stated) | inconclusive: 10 µM [inhibitor, partial curve] | –
CCc1ccc(N2NC(=O)/C(=C/C=C/c3ccco3)C2=O)cc1 | inconclusive: 100 µM [inhibitor, single point] | –
NC(Cc1ccc(Oc2cc(I)c(O)c(I)c2)c(I)c1)C(=O)O (configuration not stated) | active: 7.08 µM | –
Cc1ccc(S(=O)(=O)Cc2ccc(C(=O)N3CCC4(CC3)OCCO4)o2)cc1 | inconclusive: 89.1 µM [inhibitor, single point] | –
C=CCN1CC[C@]23c4c5ccc(O)c4OC2[C@H](O)CC[C@@]3(O)[C@H]1C5 (some centres not stated) | inconclusive: 100 µM [inhibitor, single point] | –
CCC(=O)OC1CCC2C3CCc4cc(O)ccc4C3CC[C@]12C (some centres not stated) | inconclusive: 14.1 µM [inhibitor, partial curve] | –
O=c1oc2ccccc2c(O)c1C(c1ccc([N+](=O)[O-])cc1)c1c(O)c2ccccc2oc1=O | inconclusive: 100 µM [inhibitor, single point] | –
C[C@@]12CCC3C(CCC4=CC(=O)CC[C@]43C)C1CCC2O (some centres not stated) | inconclusive: 17.8 µM [inhibitor, single point] | –
COc1ccc(S(=O)(=O)Nc2ccccc2OC)cc1N=Nc1c(O)[nH]c(=S)[nH]c1=O | inconclusive: 89.1 µM [inhibitor, single point] | –
Oc1ccc2c3c1O[C@H]1c4oc5ccccc5c4C[C@]4(O)[C@H](C2)N(CC2CC2)CC[C@@]314 | inconclusive: 0.708 µM [inhibitor, partial curve, poor fit] | –
CN1C(=O)CCS(=O)(=O)[C@@H]1c1ccc(Cl)cc1 | – | inactive: -6.9% [at 12 µM]
N#CC(C#N)=Cc1ccc([N+](=O)[O-])c(O)c1 | inconclusive: 35.5 µM [inhibitor, single point] and inconclusive: 10 µM [inhibitor, partial curve, poor fit] | –
O=C1CC(c2ccc(Br)cc2)c2c(c3ccccc3oc2=O)O1 (configuration not stated) | inactive | –
COCOC1CCC2C3CCC4=CC(=O)CCC4=C3C=CC12C (configuration not stated) | inconclusive: 79.4 µM [inhibitor, partial curve] | –
CCn1cnc2c(Nc3cccc(Cl)c3)nc(N[C@@H]3CCCC[C@@H]3N)nc21 | inconclusive: 21.2 µM [inhibitor, partial curve] | –
CC(C)CCCC(C)C1CCC2C3CC(O)[C@@]4(O)CC(O)CC[C@@]4(C)C3CC[C@@]12C (some centres not stated) | inconclusive: 35.5 µM [inhibitor, single point] | –

SMILES | Potency | activity, negative = inhibition
CCC(C)C(=O)OC1C[C@@]2(C)C(c3ccoc3)OC(=O)CC23OC2(C)OC34C(OC(=O)C(C)C)[C@]3(O)C(OC(=O)C5(C)OC5C)[C@]5(C)CC3(O)[C@](C)(C5CC(=O)OC)C14O2 (some centres not stated) | inconclusive: 31.6 µM [inhibitor, partial curve, poor fit] | –
CCN(CC)C(=O)c1ccc2c(c1)C1C(Cl)C(Sc3ccccc3[N+](=O)[O-])CC1C(C(=O)O)N2 (configuration not stated) | inconclusive: 79.4 µM [inhibitor, partial curve] | –
C=CCN1C(=O)NC(=O)/C(=C/c2cc3c4c(c2)CCCN4CCC3)C1=O | inconclusive: 89.1 µM [inhibitor, single point] | –
O=C1NC(=S)NC(=O)C1=Cc1ccc(Br)s1 | inconclusive: 56.2 µM [inhibitor, partial curve, poor fit] | –
COc1c(CC=C(C)C)c2c(c3oc(=O)c(-c4ccc(O)cc4)c(O)c13)C=CC(C)(C)O2 | inconclusive: 44.7 µM [inhibitor, single point] | –
CN1C(=O)/C(=C/C=C/c2ccco2)C(=O)NC1=S | active: 25.1 µM | –
Cc1cc(C)cc(-n2c(/C=C/c3cccc(F)c3)nc3ccccc3c2=O)c1 | inactive | –
C[N+]1(C)C2CC[C@H]1CC(OC(=O)C(CO)c1ccccc1)C2 (some centres not stated) | inactive | –
Nc1ccc(CCN2CCN(c3cccc(C(F)(F)F)c3)CC2)cc1 | inconclusive: 89.1 µM [inhibitor, partial curve, poor fit] | –
N.N.N.N.N.N.N.N.N.N.N.N.N.N.O.O.[Ru+4].[Ru+5].[Ru+5] | active: 26.7 µM | –
CC(C)c1ccc(N2C(=O)NC(=O)/C(=C/C=C/c3ccco3)C2=O)cc1 | active: 39.8 µM | –
O=c1[nH]c2ccccc2n1C1CCN(CCCC(c2ccc(F)cc2)c2ccc(F)cc2)CC1 | inconclusive: 21.2 µM [inhibitor, partial curve, poor fit] and inconclusive: 1 µM [inhibitor, partial curve, poor fit] | –
CC(=O)[O][Hg][c]1ccccc1 | – | inactive: -6.98% [at 19.4 µM]
O=C(Cn1c(=O)oc2cc(S(=O)(=O)N3CCCC3)ccc21)Nc1cccc(C(F)(F)F)c1 | inconclusive: 89.1 µM [inhibitor, partial curve, poor fit] | –
CC(C)CCNC(=O)CN1C(=O)CN=C(c2ccccc2)c2ccccc21 | inactive | –
Cc1cccc(C2=NN(c3ccc(Br)cc3)[C@@H](C(=O)N3CCOC3=O)[C@@H]2c2ccc([N+](=O)[O-])cc2)c1 | inconclusive: 39.8 µM [inhibitor, partial curve, poor fit] | –
Cc1cc(/C=C2\C(=O)NC(=O)N(c3ccccc3F)C2=O)c(C)n1-c1cc(C(=O)O)cc(C(=O)O)c1 | inconclusive: 7.94 µM [inhibitor, full curve, poor fit] | –
C[C@@H](N)[C@@H](O)c1ccc(O)c(O)c1 | active: 1 µM | –
